# Where “and” joins values, the source holds several entries; their conditions need not be identical. Equal entries are not always repeated. Hit rate of the full screen: of about 410,000 compounds, about 5,000 (1.2%) were called active. This list was built around the results that the source calls inconclusive (neither active nor inactive); the mix of calls is not that of the screen. Calls follow the shape of the dose curve; as a rule, active = well fitted inhibition curve with a large enough effect; inconclusive = small, poorly fitted or top-dose-only effect; inactive = no such curve, though single readings can be large or run the other way. Where the call is inconclusive, the potency comes from a doubtful curve fit.
# Assay: qHTS for Inhibitors of TGF-b; also: nearly all actives have a fitted effect of over 65% in size
# Conditions: HepG2 CAGA-GFP TGF-b/SMAD3 reporter, GFP fluorescence, 18 h, TGF-beta stimulated, 500 pg/mL final; series mostly up to 46.1 µM; activity, negative = inhibition: at the top concentration
# Procedure, shortened: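 Smad-responsive CAGA-GFP expression was quantified in HEPG2 cells exposed to compounds and 500 pg/mL final TGF-beta for 18 h at 37 degrees C; unstimulated wells defined full inhibition.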
# % is scaled to controls: 0 for no effect and ±100 for the full control effect; potency is read from the fitted curve at half-maximal effect; tags tell the direction and shape of the fitted curve.
SMILES,Potency,"activity, negative = inhibition"
CSc1cccc(NC(=O)c2ccco2)c1,"inconclusive: 35.5 µM [inhibitor, single point]",–
Cc1cccc(C(=O)NC2=NC(c3ccc(Cl)cc3)CC(=O)N2)c1 (configuration not stated),"inconclusive: 22.4 µM [inhibitor, single point]",–
Cc1ccc(-n2cc(C(=O)c3cc(Cl)ccc3O)cc(C#N)c2=O)cc1,"inconclusive: 35.5 µM [inhibitor, partial curve, poor fit]",–
Cc1ccc(C(=O)N/C(=C/c2cccs2)C(=O)NCCc2c[nH]c3ccccc23)cc1,"inconclusive: 25.1 µM [inhibitor, single point]",–
CN(c1ccccc1)S(=O)(=O)c1cccc(NC(=O)CSc2ncc(C(F)(F)F)cc2Cl)c1,"inconclusive: 5.01 µM [inhibitor, partial curve, poor fit]",–
CC1CCN(C(=O)CCNS(=O)(=O)c2ccc(Cl)cc2)CC1,–,inactive: -22.3%
COC(=O)c1ccc(NC(=O)c2ccccc2NS(=O)(=O)c2ccccc2)cc1,"inconclusive: 35.5 µM [inhibitor, single point]",–
CCc1nc(C)cn1S(=O)(=O)c1ccc(Cl)c(Cl)c1OC,"inconclusive: 17.8 µM [inhibitor, single point]",–
O=C(c1cccnc1)N1CCN(Cc2ccc3ccccc3c2)CC1,"inconclusive: 35.5 µM [inhibitor, single point]",–
O=C(O)c1cc(-c2ccc(-c3c(-c4ccc5c(c4)OCO5)noc3-c3ccsc3)cc2)nc2ccccc12,"inconclusive: 5.01 µM [inhibitor, partial curve, poor fit] and inconclusive: 501 nM [inhibitor, full curve]",–
COc1ccc(NC(=O)c2cc(C3CCCCN3S(=O)(=O)c3ccc(F)cc3F)on2)c(C)c1 (configuration not stated),"inconclusive: 31.6 µM [inhibitor, single point]",–
CCOC(=O)c1ccc(NC(=S)N(CCN2CCCCCC2)Cc2ccco2)cc1,–,inactive: -8.53%
OCCOCCn1c(CCNc2nc(-c3ccc(Cl)cc3)cs2)nc2cc(Cl)c(Cl)cc21,"inconclusive: 35.5 µM [inhibitor, single point]",–
COc1ccccc1N(C(=O)c1snc(C(N)=O)c1N)C(C(=O)NC1CCCC1)c1ccco1 (configuration not stated),"inconclusive: 11.2 µM [inhibitor, single point]",–
CCNC(=O)c1c(NC(=O)c2nc(S(=O)(=O)CC)ncc2Cl)sc2c1CCCC2,active: 1.41 µM,–
COc1ccccc1OCCN1CSC(=S)N(C)C1,"inconclusive: 0.224 µM [inhibitor, full curve, poor fit]",–
CCOC(=O)c1c(C)c(-c2ccccc2)n(CC(=O)NCCc2cccc(C)c2)c1C,"inconclusive: 3.98 µM [inhibitor, single point]",–
CSc1nc(N)nc(SCCS(=O)(=O)c2ccc(Cl)cc2)c1C#N,"inconclusive: 35.5 µM [inhibitor, single point]",–
Cc1cc(C(=O)CSc2nnc(-c3ccc(F)cc3)o2)c(C)n1CC1COc2ccccc2O1 (configuration not stated),–,inactive: -1.6%
COc1ccccc1N1CCN(C(=O)CNS(=O)(=O)c2ccc(Br)s2)CC1,"inconclusive: 35.5 µM [inhibitor, single point]",–
COC(=O)c1cc(C)nc(Nc2nc(C(N)Cc3ccc(F)cc3)cs2)n1 (configuration not stated),"inconclusive: 8.91 µM [inhibitor, partial curve, poor fit]",–

SMILES,Potency,"activity, negative = inhibition"
O=S(=O)(Nc1ccc(-c2ccc(NS(=O)(=O)c3ccccc3)cc2)cc1)c1ccccc1,"inconclusive: 28.2 µM [inhibitor, single point]",–
C/C(=N\Nc1nc(C)cc(-c2ccccc2)n1)c1ccc(O)cc1,"inconclusive: 6.31 µM [inhibitor, partial curve]",–
CCn1c(Cc2c(C)[nH]c3ccccc23)nnc1SCC(N)=O,"inconclusive: 10 µM [inhibitor, single point]",–
Cc1ccc(NC(=O)CCN2CC(C)OC(C)C2)cc1 (configuration not stated),–,inactive: 5.22%
CSc1ccc(/C=C/C(=O)c2ccc(NC(=O)Cc3ccccc3)cc2)cc1,–,inactive: -15.6%
CC1=CC(=C(C#N)C#N)C=C(C)N1CCN1CCN(C(=O)Nc2cccc(Cl)c2)CC1,"inconclusive: 0.891 µM [inhibitor, full curve, poor fit]",–
C[C@@]12C(=O)N(c3ccc(Cl)cc3)C(=O)N1[C@@H]1c3ccccc3OC[C@@H]1[C@H]2c1ccccc1,"inconclusive: 0.447 µM [inhibitor, full curve, poor fit]",–
CCCCOc1cccc(C(=O)NNC(=S)NC2CCCCC2)c1,"inconclusive: 35.5 µM [inhibitor, single point]",–
CC(=O)Nc1ccc(S(=O)(=O)Nc2cccc3cccnc23)cc1,–,inactive: -0.377%
COc1ccc2c(c1)c1c(c(=O)n(-c3cccc(C)c3)c(=O)n1CC(=O)NCc1ccc(C)cc1)n2C,"inconclusive: 3.98 µM [inhibitor, single point]",–
COc1cc2nc(CSc3nc(-c4ccc(F)cc4)cs3)[nH]c(=O)c2cc1OC,–,inactive: 20.8%
CC(C)N(Cc1nc(-c2ccc(Cl)cc2)no1)C(=O)c1ccco1,"inconclusive: 14.1 µM [inhibitor, single point]",–
COc1cc(OC)c(NC(=O)CNC(=O)Cn2ccc3ccccc3c2=O)cc1Cl,"inconclusive: 35.5 µM [inhibitor, partial curve, poor fit]",–
Cc1ccc(Nc2nc(Nc3ccc(C)cc3)nc(SC3=NCCS3)n2)cc1,"inconclusive: 35.5 µM [inhibitor, single point]",–
COC(=O)c1ccc(NC(=S)Nc2ccc3ccccc3c2)cc1,"inconclusive: 5.01 µM [inhibitor, partial curve, poor fit]",–
CCOC(=O)C1=C(C)NC(C)=C(C(=O)OCC)C1c1ccc(OC)c(OC)c1,"inconclusive: 35.5 µM [inhibitor, single point]",–
CCc1ccc(NC(=O)CC2S/C(=N/N=C3CCCCCC3)NC2=O)cc1 (configuration not stated),"inconclusive: 11.2 µM [inhibitor, partial curve, poor fit]",–
CC(C)(C)c1cc(-c2ccco2)c(C#N)c(SCC#N)n1,"inconclusive: 12.6 µM [inhibitor, single point]",–
COc1ccc(CNC(=O)c2sc3nc4n(c(=O)c3c2C)CCC4)cc1,–,inactive: 8.59%
CCCCn1nnnc1C(c1cc2ccccc2o1)N1CCN(C/C=C/c2ccccc2)CC1 (configuration not stated),"inconclusive: 28.2 µM [inhibitor, single point]",–
CSc1ncccc1C(=O)Nc1ccccc1N1CCOCC1,"inconclusive: 22.4 µM [inhibitor, single point]",–

SMILES,Potency,"activity, negative = inhibition"
Cc1ccc(CSc2nc3ccncc3n2Cc2nc(-c3ccccc3C)oc2C)cc1,"inconclusive: 15.8 µM [inhibitor, partial curve, poor fit]",–
O=C(CCS(=O)(=O)c1cc(Br)cc2c1N(C(=O)C1CC1)CC2)N1CCN(c2cccc(C(F)(F)F)c2)CC1,"inconclusive: 0.891 µM [inhibitor, full curve, poor fit]",–
Cc1ccccc1C(=O)N1CCC2CC1c1cc(-c3ccc(F)cc3)ccc12 (configuration not stated),"inconclusive: 20 µM [inhibitor, single point]",–
CN(C)CCCNc1nc2cc(-c3cccc(Cl)c3)sc2c(=O)n1C,"inconclusive: 12.6 µM [inhibitor, single point]",–
O=C(CCc1ccccc1)OCC(=O)c1cccc([N+](=O)[O-])c1,–,inactive: 10%
COC(=O)c1ccc(CSC2=NC[C@@H]3[C@@H]4C(=O)N(Cc5ccccc5)C(=O)[C@@H]4[C@](Cc4ccccc4)(C(=O)OC)N23)cc1,"inconclusive: 10 µM [inhibitor, partial curve, poor fit]",–
COc1ccc(CNC(=O)c2cccn2-c2nnc(N3CCCCC3)s2)c(OC)c1,"inconclusive: 35.5 µM [inhibitor, single point]",–
O=C(CN1C(=O)N/C(=C\c2ccccc2OCc2ccc(C(=O)O)cc2)C1=O)Nc1ccccc1F,"inconclusive: 35.5 µM [inhibitor, single point]",–
Clc1ccccc1CSC1=NCCN1,–,inactive: -1.23%
C=CCn1c(NCc2cc(C)ccc2O)nc2ccccc21,"inconclusive: 7.08 µM [inhibitor, partial curve, poor fit]",–
COC(=O)c1cc(=O)n(CCc2ccccc2F)c(=Nc2ccc(F)c(Cl)c2)s1,"inconclusive: 22.4 µM [inhibitor, single point]",–
CN(C)S(=O)(=O)c1ccc(NC(=S)NC(=O)c2cccs2)cc1,–,inactive: -0.827%
O=C(CONS(=O)(=O)c1ccc(Cl)cc1)NCCNc1ncc(C(F)(F)F)cc1Cl,"inconclusive: 35.5 µM [inhibitor, single point]",–
CCc1ccc2c(c1)c(N=NC1=NC(=O)CS1)c(O)n2CC,"inconclusive: 2.82 µM [inhibitor, full curve, poor fit]",–
CCC1Sc2ccc(S(=O)(=O)CCC(=O)NCc3ccco3)cc2NC1=O (configuration not stated),"inconclusive: 14.1 µM [inhibitor, single point]",–
CCC(=O)NC(c1ccco1)c1cc(Cl)c2cccnc2c1OC (configuration not stated),"inconclusive: 1.26 µM [inhibitor, partial curve]",–
CN(C)C(=O)CSc1nnc(-c2ccc(F)cc2)c2ccccc12,"inconclusive: 12.6 µM [inhibitor, single point]",–
O=C(NCc1cccnc1)c1ccc(-c2ccc(Cl)cc2)o1,"inconclusive: 35.5 µM [inhibitor, single point]",–
O=C(CSc1ccc(-c2cccnc2)nn1)Nc1ccc(F)cc1,–,inactive: -5.29%
COc1ccccc1N1CCN(C(=O)CCc2nnc3ccc(N4CCC(C)CC4)nn23)CC1,"inconclusive: 11.2 µM [inhibitor, partial curve, poor fit]",–

# From PubChem BioAssay AID588855 (National Center for Advancing Translational Sciences (NCATS), 2011)
